The molecules below were run against PRMT5/MEP50 Complex (Homo sapiens (Human), UniProt O14744) (assay: PRMT5 inhibition based on TR-FRET assay). Conditions: 32 nM PRMT5:MEP50, 50 nM Histone-H4 peptide, 1 μM SAM.
Format: biochemical
Text: PRMT5 Inhibition Based on TR-FRET Assay:
Protein arginine methyltransferase 5 (PRMT5) is a type II arginine methyltransferase that catalyze mono- and symmetric demethylation on arginine residues of histone or non-histone proteins in presence of S-adenosylmethionine (AdoMet or SAM) a cofactor responsible for donating the methyl group. PRMT5 is reported to be overexpressed in several human cancers. To identify compounds that inhibit the PRMT5 and decrease its activity, a TR-FRET based assay has been established. Time-resolved fluorescence resonance energy transfer (TR-FRET) HTS assays are homogeneous proximity assays where the interaction of two dye-labeled binding partners is detected by the energy transfer between a donor and an acceptor dye and the subsequent light emission by the acceptor dye. PRMT5 catalyzes Histone H4 peptide which is biotin tagged to the Lysine amino acid at carboxyl end, in presence of S-adenosyl-1-methionine (SAM) to methylate the peptide. The antibody specific to mono methylated H4 peptide (H4R3) with Ig conjugate binds to the methylated peptide, indirectly binding to the Europium lanthanide. SureLight Allophycocyanin-Streptavidin binds to the biotin tag of the peptide, therefore accepting the energy transferred from the Europium lanthanide. This energy transfer between Europium to SureLight Allophycocyanin is a direct measure of the activity/inhibition of the PRMT5 enzyme.
Assay buffer: 20 mM BICINE (pH 7.6), 25 mM NaCl, 2 mM DTT, 0.01% Tween-20 and 0.01% BSA.
The compound dilutions were prepared as 7.5% DMSO stock solutions in assay buffer. To 2 μL (7.5×) of test compound, 5 μL of PRMT5 enzyme prepared in assay buffer (Final concentration of 32 nM in 15 μL reaction volume) was added and allowed for 30 minutes pre-incubation time in a white polystyrene 384-well plate at room temperature. […] The plates were then read on Victor-3 with Excitation at 340 nm and Emissions collected at 615 and 665 nm in TR-FRET protocol. […]

Chain of UniProt O14744 (O14744 whole entry): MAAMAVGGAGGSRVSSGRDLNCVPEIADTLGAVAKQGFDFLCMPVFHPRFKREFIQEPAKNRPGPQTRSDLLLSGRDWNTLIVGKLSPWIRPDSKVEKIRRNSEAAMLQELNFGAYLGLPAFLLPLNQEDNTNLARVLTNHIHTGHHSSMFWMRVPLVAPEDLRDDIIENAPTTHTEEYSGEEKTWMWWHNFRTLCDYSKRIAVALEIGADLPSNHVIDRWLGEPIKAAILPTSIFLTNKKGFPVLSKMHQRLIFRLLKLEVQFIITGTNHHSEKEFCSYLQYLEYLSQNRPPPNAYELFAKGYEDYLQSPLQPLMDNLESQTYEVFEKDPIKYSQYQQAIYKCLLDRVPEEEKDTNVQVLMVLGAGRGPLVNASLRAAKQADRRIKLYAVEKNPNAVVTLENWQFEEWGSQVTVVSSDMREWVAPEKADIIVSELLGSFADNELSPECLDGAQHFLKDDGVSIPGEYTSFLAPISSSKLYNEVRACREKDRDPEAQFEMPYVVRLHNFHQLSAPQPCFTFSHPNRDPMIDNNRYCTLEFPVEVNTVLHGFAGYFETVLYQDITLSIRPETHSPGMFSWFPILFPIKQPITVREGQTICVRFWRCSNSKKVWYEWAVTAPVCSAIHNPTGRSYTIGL
Chain of UniProt O14744 (Q9BQA1 whole entry partner): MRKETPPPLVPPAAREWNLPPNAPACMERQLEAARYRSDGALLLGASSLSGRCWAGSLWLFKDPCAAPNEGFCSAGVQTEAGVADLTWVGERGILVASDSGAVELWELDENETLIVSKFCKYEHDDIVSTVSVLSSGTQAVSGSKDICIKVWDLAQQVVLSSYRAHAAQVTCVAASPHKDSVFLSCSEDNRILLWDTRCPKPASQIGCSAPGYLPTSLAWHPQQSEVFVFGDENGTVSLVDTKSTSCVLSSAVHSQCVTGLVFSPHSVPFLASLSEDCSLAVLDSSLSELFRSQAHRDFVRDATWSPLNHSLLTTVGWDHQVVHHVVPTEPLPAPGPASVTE

| SMILES | IC50 |
| --- | --- |
| CCc1ccc(CN2CCN(CC(O)CN3CCc4ccccc4C3)C2=O)cn1 (stereo not drawn) [Example 27, 1-(3-(3,4-dihydroisoquinolin-2(1H)-yl)-2-hydroxypropyl)-3-((6-ethylpyridin-3-yl)methyl)imidazolidin-2-one] | 0.22 µM |
| N#Cc1ccc(CN2C(=O)CN(CC(O)CN3CCc4ccccc4C3)C2=O)cc1 (stereo not drawn) [Example 23, 4-((3-(3-(3,4-dihydroisoquinolin-2(1H)-yl)-2-hydroxypropyl)-2,5-dioxoimidazolidin-1-yl)methyl)benzonitrile] | 0.19 µM |
| O=C1N(Cc2ccc(Cl)nc2)CCN1CC(O)CN1CCc2ccccc2C1 (stereo not drawn) [Example 25, 1-((6-Chloropyridin-3-yl)methyl)-3-(3-(3,4-dihydroisoquinolin-2(1H)-yl)-2-hydroxypropyl)imidazolidin-2-one] | 1.95 µM |

From patent US11365205B2 (Aurigene Discovery Technologies Limited, priority 2018, dated 2022)
